# Measurements reported in PubChem BioAssay AID1508623 (National Center for Advancing Translational Sciences (NCATS), 2021).
# About 450 (0.94%) of roughly 48,000 compounds were called active. About 19% were inconclusive and are not listed. Calls come from the whole dose curve; as a rule, active = well fitted inhibition curve with a large enough effect; inconclusive = small, poorly fitted or top-dose-only effect; inactive = no such curve, though single readings can be large or run the other way. The list shows a part of the results.
# Assay: Primary qHTS for Identification of Small Molecule Inhibitors of Huntingtin Promoter Activity; note: nearly all actives have a fitted effect of over 50% in size
# Details: HEK293 HTT promoter firefly luciferase reporter (activity 0% = vehicle and -100% = no light), 24 h; series mostly up to 57.5 µM; activity change, negative = inhibition: at the top concentration
# Procedure, shortened: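 Firefly luciferase signal from promoter-reporter HEK293 cells was scaled between vehicle (0%) and zero RLU (-100%). Compounds were tested at final concentrations of up to 57.5 uM over 24 h at 37 degrees C. PTC124 at 50 uM final served as control inhibitor.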
row,Compound,"activity change, negative = inhibition"
1,O=C(NCC(c1ccco1)S(=O)(=O)c1cccs1)c1c(F)cccc1F (centres undefined),inactive: -3.08%
2,CCN(CC)C(=O)c1sc2c(c1C)c(=O)n(Cc1ccccc1)c(=O)n2Cc1c(C)cc(C)cc1C,inactive: -31.2%
3,Cc1cccc(NC(=O)Cn2c(=O)n(CC3CCC(C(=O)NCCc4ccccc4)CC3)c(=O)c3ccccc32)c1C (centres undefined),inactive: -12.6%
4,Cc1ccc2[nH]c(C)c(CCNC(=O)c3cc4cc(Br)ccc4oc3=O)c2c1,inactive: -4.12%
5,O=C(NCC(c1cccnc1)N1CCc2ccccc21)c1cccc(F)c1 (centres undefined),inactive: -30.2%
6,CCOC(=O)c1ccc(NC(=O)c2c(NCc3ccc(OC)c(OC)c3OC)sc3c2CCC(C)C3)cc1 (centres undefined),inactive: -19.9%
7,CCOc1ccccc1CNC(=O)CCCn1c(=O)c2cccn2c2ccc(F)cc21,inactive: -22.3%
8,Cc1ccc(CNC(=O)c2cc(NS(=O)(=O)c3ccc(C)cc3)ccn2)cc1,inactive: -8.11%
9,COC(=O)c1sc2cccc(F)c2c1S(=O)(=O)NCc1ccccc1Cl,inactive: 8.37%
10,COc1ccc(CCNCc2c(C(=O)O)c(C)n(Cc3cccc(C)c3)c2C)cc1OC,inactive: -13.9%
11,Cn1c(Oc2cccc(Cl)c2)nc2c1c(=O)n(Cc1ccccc1Cl)c(=O)n2C,inactive: -8.67%
12,Cc1cc(C)cc(NC(=O)C2CCN(c3nnc(-n4c(C)ccc4C)s3)CC2)c1,inactive: -22.1%
13,CCOC(=O)c1scc(-c2ccc(C)cc2)c1S(=O)(=O)N1CCN(c2ccccc2)CC1,inactive: -23.7%
14,CCc1cccc(NC(=O)CN(C)S(=O)(=O)c2ccc3c(c2)n(C)c(=O)c(=O)n3C)c1,inactive: -15.3%
15,CCOc1cc(C(=O)Nc2ccc3nc(N4CCN(C)CC4)cc(C)c3c2)cc(OCC)c1OCC,inactive: -29.8%
16,COc1ccc(-c2noc(COc3ccc(C)cc3C)n2)cc1OC,inactive: -24%
17,COc1ccc(-n2c(SCC(=O)Nc3ccc4c(c3)OCO4)nc3c([nH]c4ccccc43)c2=O)cc1,inactive: -14.1%
18,CC(=O)c1ccc(NS(=O)(=O)c2ccc3[nH]c(=O)[nH]c3c2)cc1,inactive: 41.2%
19,COc1ccc(S(=O)(=O)N(CC(=O)Nc2ccc(C)cc2)c2ccc(C)cc2)cc1OC,inactive: -4.81%
20,COc1cccc(CNC(=O)C2=C(C)C(=O)OC23CCCCCC3)c1,inactive: -13.9%

row,Compound,"activity change, negative = inhibition"
1,CCOc1ccc(C(=O)NCC(c2ccc3c(c2)OCO3)N2CCN(C)CC2)cc1 (centres undefined),inactive: -6.82%
2,CCOc1ccc(NC(=O)N2CCC(n3c(C)nc4cccnc43)CC2)cc1,inactive: 0%
3,Cc1ccc(-c2nnc(Nc3ccc(O)cc3)c3ccccc23)cc1S(=O)(=O)NC(C)(C)CO,inactive: -19%
4,CCOc1ccc(S(=O)(=O)N(CC(=O)Nc2ccc(OC)c(Cl)c2)c2ccccc2)cc1,inactive: -18.7%
5,COc1cc2c(cc1OC)C(COc1ccccc1OC)N(C(=O)c1ccc(S(=O)(=O)N(C)C)cc1)CC2 (centres undefined),inactive: -9.69%
6,COc1ccc(Nc2nc3c(S(=O)(=O)c4ccc(C)cc4)nnn3c3ccsc23)cc1Cl,inactive: -5.64%
7,Cc1ccc(/C=C/c2onc(C)c2S(=O)(=O)N2CCC(C(=O)N3CCN(c4cc(C)ccc4C)CC3)CC2)cc1,inactive: -24%
8,O=C(NOCC(O)CO)c1cc(Br)c(F)c(F)c1Nc1ccc(I)cc1F (centres undefined),inactive: -12.1%
9,COc1cc(-c2nc(-c3ccccc3)c(-c3ccc(Br)cc3)[nH]2)cc(OC)c1O,inactive: -14.8%
10,COC(=O)c1cc2sc(Cl)cc2n1Cc1nc(-c2ccccc2C)oc1C,inactive: -20.4%
11,CC1CN(C(=O)N2CCC(C(=O)NCc3cccs3)CC2)c2ccccc2O1 (centres undefined),inactive: -9.81%
12,CCC1CCCCN1CCCNC(=O)c1c(O)nc2cc(C)ccn2c1=O (centres undefined),inactive: -0.984%
13,COc1cccc(CNC(=O)Cn2c(=O)nc(-c3ccccc3F)c3cc(Cl)ccc32)c1,inactive: -4%
14,CC1CCN(S(=O)(=O)c2ccc3c(c2)N(CC(=O)NC(C)(C)C)C(=O)CS3)CC1,inactive: -21.2%
15,COc1ccc(Nc2oc(/C=C/c3cc(OC)c(OC)c(OC)c3)nc2C#N)cc1,inactive: 0.263%
16,Cc1oc2ncnc(N3CCCCC3)c2c1C(=O)N1CCN(c2ccc(Cl)cc2)CC1,inactive: 17.2%
17,COc1ccccc1C(=O)Nc1ccc(S(=O)(=O)Nc2nc(C)cc(C)n2)cc1,inactive: -19.7% [at 11.5 µM]
18,COc1ccc(S(=O)(=O)N(CC(=O)NCCc2ccccc2)c2ccc(Cl)cc2)cc1,inactive: -14.4%
19,COc1ccc(NC(=O)c2ccco2)cc1NC(=O)c1cc(Br)ccc1Cl,inactive: -18.1%
20,CCOc1ccc(C(=O)c2oc3ccccc3c2NC(=O)c2cc(=O)c3ccc(C)cc3o2)cc1,inactive: 2.02%

row,Compound,"activity change, negative = inhibition"
1,COc1ccc(-c2nc3c4ccccc4n(CC(=O)N4CCN(c5ccccc5F)CC4)c(=O)n3n2)cc1,inactive: 11.9%
2,CCCCN(CC)CCNC(=O)c1nn(C)c2c1CS(=O)(=O)c1ccccc1-2,inactive: 5.5%
3,CCc1ccc(NC(=O)CCCc2nnc3n(C(C)CC)c(=O)c4sccc4n23)cc1 (centres undefined),inactive: -20.1%
4,Cc1ccc(NC(=O)CSc2nnc(NC(=O)NC3CCCCC3)s2)cc1,inactive: 23.8%
5,COC(=O)c1ccccc1NC(=O)c1sc2nc(C)cc(C)c2c1NC(=O)c1ccccc1Cl,inactive: -13.9%
6,Cc1cc(/C=C(\C#N)C(=O)Nc2ccccc2)c(C)n1-c1ccc(F)cc1,inactive: -3.1%
7,COc1ccc(NC(=O)c2cc(C(C)=O)n3ccccc23)cc1Cl,inactive: 8.61%
8,COc1ccc2c(CNCc3cccs3)c(C(=O)O)n(Cc3cccc(F)c3)c2c1,inactive: -16.3%
9,CC(CNC(=O)c1ccc2nc(CCc3ccccc3)oc2c1)c1ccccc1 (centres undefined),inactive: -2.24%
10,COc1ccc(NC(=O)c2ncoc2-c2ccco2)cc1Cl,inactive: -20.5%
11,COc1ccc(CNC(=O)c2cc(C3CC3)nc3c2c(C)nn3-c2cccc(Cl)c2C)cc1,inactive: 1.96%
12,Cc1cccc(C(=O)Nc2ccc3nc(SCC(=O)N4CCc5ccccc54)sc3c2)c1,inactive: -13.6%
13,COc1ccc(OC)c(-c2nnc3n(CCc4ccccc4)c(=O)c4ccccc4n23)c1,inactive: 42.5%
14,COc1ccc(CNC(=O)Cn2ccc3cc(S(=O)(=O)N4CCCC4)ccc32)c(OC)c1,inactive: -6.58%
15,CCn1c(=O)n(-c2ccc3c(c2)OCO3)c2nc(-c3cc(OC)ccc3OC)nc(C(N)=O)c21,inactive: -2.4%
16,CCOc1ccc2oc(=O)cc(CN3CCN(C(=O)c4cccc(Cl)c4)CC3)c2c1,inactive: -5.79%
17,Clc1ccc2ncc(-c3cccc(NC4CNC4)n3)n2c1,inactive: -24.6%
18,CCN(CC)C(=O)Cn1c(=O)n(CCCCCC(=O)Nc2ccccc2)c(=O)c2sccc21,inactive: -0.415%
19,NC(=O)C(=O)N/N=C/c1ccc([N+](=O)[O-])o1,inactive: 1.67%
